Assay results published in PubChem BioAssay AID504832 (National Center for Advancing Translational Sciences (NCATS), 2011).
The campaign covered roughly 310,000 compounds. About 18,000 (5.8%) were called active. Inconclusive means that the source gave no clear call. Such entries were picked first, then a sample of the others. The call rests on the fitted dose curve; in most records, active means well fitted inhibition curve with a large enough effect; inconclusive means small, poorly fitted or top-dose-only effect, or another doubt; inactive means no such curve, though single readings can be large or run the other way. No potency is given beside an inconclusive call; the fits are too rough.

Test: Primary qHTS for delayed death inhibitors of the malarial parasite plastid, 48 hour incubation
Settings: P. falciparum luciferase growth in erythrocytes; series mostly up to 28.7 µM
Summary of the method: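 Erythrocytes infected with P. falciparum carrying an integrated firefly luciferase reporter (2% hematocrit, 0.1% parasitemia final) were exposed to compounds in RPMI 1640 with 0.5% Albumax at 37 C, 5% CO2. Growth inhibition was scored as reduced luminescence.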
On the % scale 0 is the no-effect control and ±100 the full control effect; potency means the concentration at half of the fitted maximal effect; tags describe the fitted curve by direction and shape.

| Compound | Potency | activity change, negative = inhibition |
| --- | --- | --- |
| COc1ccc(C(=O)NC(=S)Nc2cccc(NC(=O)c3ccco3)c2)cc1[N+](=O)[O-] | inactive | – |
| O=C(c1cccc(S(=O)(=O)N2CCc3ccccc3C2)c1)N1CCN(c2ccc(O)cc2)CC1 | inconclusive [inhibitor, partial curve, poor fit] | – |
| CN(c1ccc([N+](=O)[O-])cc1/C=N/NC(=O)COc1ccccc1)C1CCCCC1 | inconclusive [inhibitor, single point] | – |
| O=[N+]([O-])c1ccc(S(=O)(=O)CC2CSc3nc4ccccc4n32)cc1 (stereo not drawn) | inactive | – |
| COc1ccc(S(=O)(=O)N2CCCC2)cc1C(C)C | inconclusive [inhibitor, partial curve, poor fit] | – |
| Cc1cc(C)c2sc(N(CCCN(C)C)C(=O)c3ccc(S(=O)(=O)N4CCCc5ccccc54)cc3)nc2c1 | active: 9.28 µM | – |
| CCN1C(=O)[C@@H]2Cc3c([nH]c4ccccc34)C(c3ccc(OC)cc3)N2C1=S (stereo partly drawn) | active: 14.7 µM | – |
| O=C(CN1CCN(CC(=O)Nc2ccccc2Cc2ccccc2)CC1)Nc1ccccc1Cl | inconclusive [inhibitor, partial curve] | – |
| CCOc1ccccc1N(CC(=O)NC1CCCC1)S(=O)(=O)c1ccc(C)cc1 | inconclusive [inhibitor, single point] | – |
| O=C(NCC1CCCCN1)c1cc(OCC(F)(F)F)ccc1OCC(F)(F)F (stereo not drawn) | inactive | – |
| Cc1cccc([C@@H]2[C@@H]3C(=O)N(Cc4ccccc4)C(=O)[C@@H]3[C@]3(C)C(=O)N(c4cccc(Cl)c4)C(=O)N23)c1 | inconclusive [inhibitor, single point] | – |
| O=c1c2c3c(sc2n(CCN2CCOCC2)c(=O)n1Cc1ccco1)CCCCC3 | inconclusive [inhibitor, single point] | – |
| CCC(Oc1ccccc1)C(=O)Nc1ccc(S(=O)(=O)N2CCOCC2)cc1 (stereo not drawn) | inconclusive [inhibitor, single point] | – |
| Cc1ccc(CN(Cc2ccccc2)C(=S)Nc2ccccc2C)o1 | inconclusive [inhibitor, single point] | – |
| O=C(NC1c2ccccc2-c2ccccc21)c1ccco1 | inconclusive [inhibitor, full curve, poor fit] | – |
| Nc1c(S(=O)(=O)c2cc(Cl)ccc2Cl)c2nc3ccccc3nc2n1CCN1CCOCC1 | active: 13.1 µM | – |
| [O-][n+]1c2ccccc2c2n1CCN1CCOC21c1ccc(Cl)cc1 (stereo not drawn) | inconclusive [inhibitor, single point] | – |
| COc1c(C)cc(S(=O)(=O)NCCN2CCOCC2)c(C)c1C | inactive | – |
| CC[n+]1c(C=C2C=C(C)OC(C)=C2)sc2ccccc21 | inconclusive [inhibitor, partial curve, poor fit] | – |
| COC(=O)CN1C(=O)[C@H]2[C@@H](c3ccc(C)o3)N3C(=O)CN(Cc4ccccn4)C(=O)[C@@]3(C)[C@H]2C1=O | inactive | – |
| CCc1cccc2c(C(=O)CN3C(=O)NC4(CCc5ccccc54)C3=O)c[nH]c12 (stereo not drawn) | inconclusive [inhibitor, partial curve] | – |

| Compound | Potency | activity change, negative = inhibition |
| --- | --- | --- |
| COc1ccc(NC(=O)C2CCC(CNc3c(N4CCOCC4)c(=O)c3=O)CC2)cc1Cl (stereo not drawn) | inconclusive [inhibitor, partial curve] | – |
| Cc1onc(-c2c(F)cccc2Cl)c1C(=O)O/N=C(\N)c1ccc([N+](=O)[O-])o1 | active: 8.28 µM | – |
| CCOC(=O)c1ccc(NC(=O)c2nc[nH]c2C(=O)N[C@@H](CCCCNC(=O)OC(C)(C)C)C(=O)OC(C)(C)C)cc1 | active: 6.57 µM | – |
| O=C1CCN(Cc2ccccc2)N1 | inactive | – |
| COC(=O)C1=C(c2ccc(OC)c(OC)c2)C[C@@H]2CC[C@H]1N2C(=O)NCCc1ccccc1 | inconclusive [inhibitor, single point] | – |
| CCOC(=O)N1CCN(S(=O)(=O)N2CCCC(C(=O)NCc3ccc(OC)cc3OC)C2)CC1 (stereo not drawn) | inconclusive [inhibitor, single point] | – |
| Cc1ccc(C(=O)N2N=C(CC(C)C)CC2(O)C(F)(F)F)o1 (stereo not drawn) | inconclusive [inhibitor, single point] | – |
| C=CCNc1nc2c(c(=O)n(C)c(=O)n2C)n1CCCCCC | inconclusive [inhibitor, partial curve] | – |
| O=C(NCc1cccnc1)c1c[nH]c2cc3c(cc2c1=O)OCCO3 | inconclusive [inhibitor, single point] | – |
| CCOC(=O)CSc1nc2ccccc2n1CC(=O)N1CCN(c2ccccc2)CC1 | inconclusive [inhibitor, partial curve, poor fit] | – |
| COc1ccc(C2Nc3ccccc3C(=O)N2Cc2ccco2)cc1COc1ccc([N+](=O)[O-])cc1 (stereo not drawn) | inconclusive [inhibitor, partial curve, poor fit] | – |
| COc1ccc(Nc2nc(NN)nc(C)c2[N+](=O)[O-])cc1 | inconclusive [inhibitor, single point] | – |
| Cc1nn(Cc2ccccc2)c(Cl)c1C(=O)NCCc1ccc(Cl)cc1 | inconclusive [inhibitor, single point] | – |
| CN(CC(=O)Nc1ccc(N2CCOCC2)cc1)C(=O)CCc1cc(C(C)(C)C)c(O)c(C(C)(C)C)c1 | active: 3.29 µM | – |
| CCOC(=O)c1c(NC(=O)COc2cccc3c2CCN(C)C3=O)sc2c1CCC2 | inconclusive [inhibitor, partial curve, poor fit] | – |
| CCOC(=O)Cc1c(C)nc2c(-c3ccccc3)c(C)nn2c1C | inconclusive [inhibitor, partial curve] | – |
| COc1ccccc1-c1nn(-c2ccccc2)cc1C(=O)N1CCc2ccccc2C1 | inconclusive [inhibitor, single point] | – |
| CCOc1ccc(-c2nnc(SCC(=O)NC3CC3)o2)cc1 | inconclusive [inhibitor, single point] | – |
| CCCn1c(CN2CCN(C(=O)OCC)CC2)nc2cc(NC(C)=O)ccc21 | inactive | – |
| COc1ccc(-n2c(O)c(/C=N/NS(=O)(=O)c3ccc(C)cc3)c3ccccc3c2=O)cc1OC | inconclusive [inhibitor, single point] | – |
| COc1c(Cl)cc(Cl)cc1C(=O)Nc1ccc(NC(C)=O)cc1 | inconclusive [inhibitor, partial curve, poor fit] | – |

| Compound | Potency | activity change, negative = inhibition |
| --- | --- | --- |
| CCOc1ccc(C(C(=O)NC2CCCCC2)N(C(=O)c2ccccn2)c2cccnc2)cc1 (stereo not drawn) | active: 10.4 µM | – |
| Cc1cc(Cl)ccc1C(=O)C1CCCN(C(=O)c2cscn2)C1 (stereo not drawn) | inactive | – |
| CCCN(/C=N/c1sc2c(c1C#N)CCCCC2)CCC | inconclusive [inhibitor, single point] | – |
| O=C(/C=C/c1cccc(Cl)c1)Nn1c(-c2cccs2)nc2ccccc2c1=O | inactive | – |
| COc1cccc(C=O)c1OC(=O)N1CCOCC1 | – | inactive: 1.63% [at 0.00184 µM] |
| O=C(Nc1ccc2c(c1)CCC2)c1cc(S(=O)(=O)N2CCN(c3ccccc3)CC2)ccc1Cl | inconclusive [inhibitor, single point] | – |
| O=C(O)c1c(C(=O)N2N=C3/C(=C/c4ccccc4)CCCC3C2c2ccccc2)cccc1[N+](=O)[O-] (stereo not drawn) | inconclusive [inhibitor, single point] | – |
| O=C(Nc1ccc(Cl)c([N+](=O)[O-])c1)Nc1nc2ccccc2s1 | inconclusive [inhibitor, single point] | – |
| CN(Cc1ccccc1)C(=O)COc1ccc(N(C)S(=O)(=O)c2ccc(F)cc2)cc1 | inconclusive [inhibitor, single point] | – |
| C/C(=N/NS(=O)(=O)c1ccc(Cl)cc1)c1cccc(NC(=O)c2ccncc2)c1 | inconclusive [inhibitor, partial curve] | – |
| CCC(CC)C(=O)Nc1cccc(C(=O)Nc2nnc(C)s2)c1 | inconclusive [inhibitor, single point] | – |
| Cc1cc2cc(CNC(=O)NC3CCCCC3)ccc2[nH]1 | inconclusive [inhibitor, single point] | – |
| CCCn1nnnc1NCc1ccccc1F | inconclusive [inhibitor, full curve, poor fit] | – |
| CN(CC(=O)Nc1ccc(Cl)c(C(F)(F)F)c1)C(=O)CCc1nc2ccccc2c(=O)[nH]1 | inconclusive [inhibitor, partial curve] | – |
| Cn1c(N2CCCC2)nc2c1c(=O)n(Cc1ccc(F)cc1)c(=O)n2C | inconclusive [inhibitor, full curve, poor fit] | – |
| O=C(O)CSc1c2c(nc3cc(C(=O)Nc4cccc(C(F)(F)F)c4)ccc13)CCCC2 | inactive | – |
| CCC(C)N1CCN(S(=O)(=O)Cc2ccccc2)CC1 (stereo not drawn) | inactive | – |
| COc1cc(C(=O)Nc2ccc(NC(=O)C3CCCCC3)nc2)cc(OC)c1OC | inconclusive [inhibitor, single point] | – |
| CCOc1ccccc1Nc1nnc(SCC(=O)Nc2cccc(S(=O)(=O)NC3=NCCCCC3)c2)s1 | inconclusive [inhibitor, partial curve, poor fit] | – |
| O=C(NCc1cccnc1)c1c(O)c2cccc3c2n(c1=O)CCC3 | inconclusive [inhibitor, partial curve, poor fit] | – |
| O=C(CN1C(=O)NC2(CCc3ccccc32)C1=O)Nc1cccc(F)c1 (stereo not drawn) | inconclusive [inhibitor, single point] | – |
